# Results from PubChem BioAssay (NCATS).
# Inconclusive means that the source gave no clear call. Such entries were picked first, then a sample of the others. For part of these data: Potencies beside an inconclusive call are fits to weak or partial responses and may not hold up. For part of these data: A note “side channel” means that the fit belongs to a control or component signal, not to the main read-out. The source made the active and inactive calls. Unless noted, calls come from the whole dose curve; as a rule, active = well fitted curve in either direction with a large enough effect (not every such curve was filed as active); inconclusive = small, poorly fitted or top-dose-only effect, or another doubt; inactive = flat fitted curve, though single readings scatter.
# Assays:
# [1] = AP1 Signaling Pathway (AID 357); details: ME-180 AP-1-bla reporter, EGF-induced, beta-lactamase ratio, 5 h; at 17.2 µM (top of the series) unless noted;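 note: ME-180 reporter cells stimulated with EGF at its EC50 level; top concentration of the series differs between compounds; % is set by controls: 0 for no effect and ±100 for the full control effect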
# Method in brief: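 Titration-series screen for positive or negative modulators of EC50 EGF-induced signaling in ME-180 cells carrying an AP-1-driven beta-lactamase reporter. After 5 hours at 37 degrees Celsius, CCF4 460nm/530nm emission ratio gave %Activity; AC50 values derived.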
# [2] = Stat Signaling Pathway (AID 446); details: ME-180 SIE beta-lactamase reporter, IL-6 stimulated, 5 h; at 7.69 µM (top of the series) unless noted;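 note: ME-180 cervical cancer cells given 40 pM IL-6 alongside compound; SIE-controlled beta-lactamase reporter measured as 460/530 nm FRET emission ratio; top concentration of the series differs between compounds; % is set by controls: 0 for no effect and ±100 for the full control effect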
# Method in brief: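 FRET read-out (405 nm excitation, 460/530 nm emission) of a beta-lactamase reporter under a STAT-inducible element in ME-180 cervical carcinoma cells. Cells with compound receive 40 pM IL-6 for 5 h. Values are normalised to AC90 stimulation and AC90 JAK-inhibitor controls.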
# [3] = qHTS Assay for Identification of Small Molecule Agonists for Hypoxia Response Element Signaling Pathway (AID 914; active = well fitted activation curve with a large enough effect in the signal ratio, with a control signal flat, not every such curve was filed as active; inconclusive = small, poorly fitted or top-dose-only effect, or effect the other way, or a change in a side signal; the % refers to the signal ratio; note: potency is the fitted concentration of half-maximal effect; for activation: top concentration of the series differs between compounds; % of control where 0% means no effect); details: ME-180 (cervical carcinoma) HRE-bla reporter, beta-lactamase ratio, CoCl2, 17 h; activation: stronger effect = higher value
# Method in brief: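 HRE-bla ME-180 cells, overnight plating in Opti-MEM with 0.5% dialyzed FBS; cpd titration + EC50 CoCl2, 17 h, 37 degrees Celsius; CCF4 2.5 h RT; 460/530 nm ratio; AC50.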
# [4] = biological target: Mitogen-activated protein kinase 10 (Mus musculus) (UniProt Q61831); assay: JNK3 AlphaScreen Assay (AID 530); details: JNK3 lysate, c-Jun phosphorylation; activity change, negative = inhibition: at 57.1 µM (top of the series);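 note: kinase came from lysate of stimulated human HepG2 cells; signal reports phosphorylation of biotinylated GST-cJun 1-79 at Ser73 with 10 µM ATP; potency is the fitted concentration of half-maximal effect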
# Method in brief: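 Activity was read by AlphaScreen after JNK3-containing HepG2 lysate (cytokine pre-activated) phosphorylated biotinylated GST-cJun with 10 uM ATP at room temperature. Phospho-Ser73 cJun antibody with Protein-A acceptor beads provided detection.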
# [5] = biological target: Cytochrome P450 3A4 (Homo sapiens) (UniProt P08684); assay: qHTS Assay for Inhibitors and Substrates of Cytochrome P450 3A4 (AID 884; active = well fitted inhibition curve with a large enough effect; inconclusive = small, poorly fitted or top-dose-only effect; inactive = no such curve, though single readings can be large or run the other way; note: potency is the fitted concentration of half-maximal effect; nearly all actives have a fitted effect of over 50% in size)
# Method in brief: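 Luminescent readout of luciferin produced by CYP3A4 (20 nM) dealkylation of Luciferin-PPXE, 25 uM (its KM). NADPH-driven reaction ran 60 min at RT after 10 min compound preincubation; data scaled to 57 uM ketoconazole as 100% inhibition.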
# [6] = biological target: Glucocorticoid receptor (Homo sapiens) (UniProt P04150); assay: GR-GFP Redistribution (AID 450;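 active = compounds whose dose series gives a full or clear partial fitted curve of increased nuclear translocation; inconclusive = weak partial curve or effect only at the top dose; inactive = no dose-dependent translocation response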; note: potency is the fitted concentration of half-maximal effect); details: U2OS GR-GFP nuclear translocation, laser cytometry, 2 h
# [7] = biological target: Cytochrome P450 2D6 (Homo sapiens) (UniProt P10635); assay: qHTS Assay for Inhibitors and Substrates of Cytochrome P450 2D6 (AID 891; active = well fitted inhibition curve with a large enough effect; inconclusive = small, poorly fitted or top-dose-only effect; inactive = no such curve, though single readings can be large or run the other way;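 note: luciferin methyl ether substrate demethylated by CYP2D6 with NADPH regeneration; potency is the fitted concentration of half-maximal effect; nearly all actives have a fitted effect of over 60% in size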); details: recombinant CYP2D6, luciferin-ME EGE luminescence; activity change, negative = inhibition: at 57.1 µM (top of the series)
# Method in brief: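 Luminescent read-out of luciferin formed by 5 nM human CYP2D6 demethylating 30 uM Luciferin-ME EGE (Km level) over 60 min at room temperature after NADPH regeneration addition. Data normalized to full inhibition by 1.43 uM quinidine.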
# [8] = biological target: 3',5'-cyclic-AMP phosphodiesterase 4B (Homo sapiens) (UniProt Q07343); assay: qHTS Assay for Inhibitors of PDE-IV (AID 607; active = well fitted activation curve with a large enough effect in the main read-out, with a control signal flat, not every such curve was filed as active; inconclusive = small, poorly fitted or top-dose-only effect, or effect the other way, or a change in a side signal; note: potency is the fitted concentration of half-maximal effect); details: HEK293 ACTOne CNG channel cells, membrane potential fluorescence; activation (PDE inhibition): at 22.9 µM (top of the series)
# Method in brief: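 Cell-based read-out of cAMP via a modified cyclic nucleotide-gated channel and membrane potential dye (535/590 nm) in HEK293 cells expressing PDE4 endogenously. Compounds tested up to 22.9 uM final; 100 uM RO 20-1724 reference.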
# Tags give direction and shape of the fitted curve or compound fluorescence and quenching.
# UniProt P04150, sequence (P04150 whole entry, looked up): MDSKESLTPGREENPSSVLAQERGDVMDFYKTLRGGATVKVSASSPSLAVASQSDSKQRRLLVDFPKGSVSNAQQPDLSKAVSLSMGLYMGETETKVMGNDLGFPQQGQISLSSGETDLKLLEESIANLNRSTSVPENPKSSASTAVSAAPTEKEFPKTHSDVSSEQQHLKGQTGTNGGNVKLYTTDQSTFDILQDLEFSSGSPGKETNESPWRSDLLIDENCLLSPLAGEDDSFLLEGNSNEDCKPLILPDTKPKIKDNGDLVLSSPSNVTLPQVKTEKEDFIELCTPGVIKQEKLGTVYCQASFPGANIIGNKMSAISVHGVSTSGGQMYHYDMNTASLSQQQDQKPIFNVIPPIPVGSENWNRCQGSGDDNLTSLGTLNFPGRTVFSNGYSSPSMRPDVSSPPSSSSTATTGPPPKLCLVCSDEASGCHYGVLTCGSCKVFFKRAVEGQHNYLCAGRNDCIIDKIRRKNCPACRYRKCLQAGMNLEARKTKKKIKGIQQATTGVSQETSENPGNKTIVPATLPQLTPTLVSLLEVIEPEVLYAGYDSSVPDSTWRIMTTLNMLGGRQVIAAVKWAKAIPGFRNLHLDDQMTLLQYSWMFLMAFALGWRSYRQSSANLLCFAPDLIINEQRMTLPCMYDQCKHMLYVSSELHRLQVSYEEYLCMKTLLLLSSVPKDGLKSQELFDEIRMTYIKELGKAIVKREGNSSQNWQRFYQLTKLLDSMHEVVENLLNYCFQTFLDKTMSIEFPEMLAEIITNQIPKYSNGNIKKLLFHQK
# UniProt P08684, sequence (P08684 whole entry, looked up): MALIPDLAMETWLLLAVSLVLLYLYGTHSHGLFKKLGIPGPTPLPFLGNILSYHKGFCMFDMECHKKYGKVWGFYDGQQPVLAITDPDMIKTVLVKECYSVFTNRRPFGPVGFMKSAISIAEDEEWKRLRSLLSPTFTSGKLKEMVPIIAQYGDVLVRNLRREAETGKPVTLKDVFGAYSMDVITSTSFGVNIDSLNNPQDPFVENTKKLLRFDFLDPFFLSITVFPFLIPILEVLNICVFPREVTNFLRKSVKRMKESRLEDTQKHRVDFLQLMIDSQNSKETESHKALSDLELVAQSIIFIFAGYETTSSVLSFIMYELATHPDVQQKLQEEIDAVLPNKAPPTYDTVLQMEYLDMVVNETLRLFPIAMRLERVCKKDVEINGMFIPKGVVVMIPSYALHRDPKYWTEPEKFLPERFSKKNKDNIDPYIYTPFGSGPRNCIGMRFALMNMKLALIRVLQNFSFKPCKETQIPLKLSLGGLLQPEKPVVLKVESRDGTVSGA
# UniProt P10635, sequence (P10635 whole entry, looked up): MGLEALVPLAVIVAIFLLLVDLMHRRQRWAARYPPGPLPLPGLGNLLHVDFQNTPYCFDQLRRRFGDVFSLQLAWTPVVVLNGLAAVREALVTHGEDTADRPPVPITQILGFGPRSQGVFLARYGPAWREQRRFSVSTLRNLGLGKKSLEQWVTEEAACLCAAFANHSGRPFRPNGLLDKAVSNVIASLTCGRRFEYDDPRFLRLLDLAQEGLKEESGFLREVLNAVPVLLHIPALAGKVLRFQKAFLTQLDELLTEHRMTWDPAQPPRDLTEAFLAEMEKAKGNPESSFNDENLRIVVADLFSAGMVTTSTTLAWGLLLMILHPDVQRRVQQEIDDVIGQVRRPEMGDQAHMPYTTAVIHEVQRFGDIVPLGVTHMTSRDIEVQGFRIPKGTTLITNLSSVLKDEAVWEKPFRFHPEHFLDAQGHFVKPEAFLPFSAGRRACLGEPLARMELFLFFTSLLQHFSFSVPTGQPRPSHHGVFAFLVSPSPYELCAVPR
# UniProt Q07343, sequence (Q07343 whole entry, looked up): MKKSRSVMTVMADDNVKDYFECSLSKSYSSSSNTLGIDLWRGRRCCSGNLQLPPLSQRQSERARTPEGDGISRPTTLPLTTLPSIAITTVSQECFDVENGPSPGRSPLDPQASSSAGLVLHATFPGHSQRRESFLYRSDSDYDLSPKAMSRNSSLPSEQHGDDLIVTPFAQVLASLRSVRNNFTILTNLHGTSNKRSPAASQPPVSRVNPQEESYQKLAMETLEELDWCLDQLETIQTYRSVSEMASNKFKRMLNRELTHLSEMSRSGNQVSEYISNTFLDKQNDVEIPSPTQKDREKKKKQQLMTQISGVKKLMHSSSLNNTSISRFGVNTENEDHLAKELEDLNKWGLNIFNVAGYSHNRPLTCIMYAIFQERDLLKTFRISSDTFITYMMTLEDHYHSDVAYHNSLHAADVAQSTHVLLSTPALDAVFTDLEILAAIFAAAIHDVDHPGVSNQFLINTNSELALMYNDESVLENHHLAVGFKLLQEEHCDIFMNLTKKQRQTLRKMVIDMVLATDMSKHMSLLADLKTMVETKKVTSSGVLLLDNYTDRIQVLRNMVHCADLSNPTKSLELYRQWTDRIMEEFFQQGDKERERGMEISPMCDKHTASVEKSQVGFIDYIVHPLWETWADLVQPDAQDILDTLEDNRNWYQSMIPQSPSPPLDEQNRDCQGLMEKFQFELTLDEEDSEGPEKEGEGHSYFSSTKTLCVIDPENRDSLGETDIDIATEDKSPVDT
compound,measurement,setting,value
COc1ccc(C(=O)CSC2=C(C#N)C3(CCCCC3)C(C#N)=C(N)N2)cc1,"activity change, negative = inhibition",[1],inconclusive: -44.9% [inhibitor]
same,"activity, negative = inhibition",[2],inconclusive: -32% [inhibitor] [at 17.2 µM]
same,Potency,[3],"inconclusive: 10 µM [inhibitor, partial curve]"
C#CCSC1=C(C#N)C(c2cccs2)C(C(=O)OCC)=C(C)N1 (stereo unspecified),"activity change, negative = inhibition",[1],inconclusive: -34.1% [inhibitor]
same,"activity, negative = inhibition",[2],inconclusive: -30.1% [inhibitor] [at 17.2 µM]
same,Potency,[3],"inconclusive: 0.631 µM [inhibitor, single point]"
N#CC1=C(SCC(=O)c2ccc(Cl)cc2)NC2=C(C(=O)CCC2)C1c1ccco1 (stereo unspecified),"activity change, negative = inhibition",[1],inconclusive: -87.6% [inhibitor]
same,"activity, negative = inhibition",[2],inconclusive: -36.4% [inhibitor] [at 17.2 µM]
same,activation,[3],inconclusive: 31.9%
COc1ccc(-c2nnc3sc(-c4ccccc4OC)nn23)cc1,"activity change, negative = inhibition",[1],inconclusive: 31.3% [activator]
same,"activity, negative = inhibition",[2],inconclusive: 17.6% [activator] [at 17.2 µM]
same,Potency,[3],"inconclusive: 3.98 µM [inhibitor, full curve]"
CCN(CC)CCNc1ncnc2c1[nH]c1ccc(OC)cc12,"activity change, negative = inhibition",[1],inactive: 7.05%
same,"activity, negative = inhibition",[2],inactive: 3.82% [at 17.2 µM]
same,activation,[3],inactive: 2.09%
CSc1nc(N)c(C#N)c(-c2ccccc2Cl)c1C#N,"activity change, negative = inhibition",[1],inconclusive: -38.3% [inhibitor]
same,"activity, negative = inhibition",[2],inconclusive: -35.8% [inhibitor] [at 17.2 µM]
same,Potency,[3],"inconclusive: 10 µM [inhibitor, partial curve, poor fit]"
COc1ccccc1CCn1c(=O)c(-c2cn(C)c3ccccc23)nc2cncnc21,"activity change, negative = inhibition",[1],inconclusive: 41.6% [activator] [at 7.69 µM]
same,"activity, negative = inhibition",[2],inconclusive: 70.4% [activator]
same,Potency,[4],"inconclusive: 0.501 µM [activator, full curve]"
same,Potency,[5],active: 2.51 µM
same,Potency,[3],"inconclusive: 2.51 µM [activator, single point]"
CN(C)c1ccc(NC(=O)c2sc(SCC(=O)Nc3nccs3)nc2N)cc1,"activity change, negative = inhibition",[1],inconclusive: -30.6% [inhibitor]
same,"activity, negative = inhibition",[2],inconclusive: -39.4% [inhibitor] [at 17.2 µM]
same,activation,[3],inconclusive: 90.2%
CCOC(=O)c1cc2c(=O)n3cccc(C)c3nc2n(C)c1=N,"activity change, negative = inhibition",[1],inconclusive: 62.6% [activator]
same,"activity, negative = inhibition",[2],inconclusive: 74% [activator] [at 17.2 µM]
same,Potency,[3],active: 6.31 µM
CCSc1nc(N)c2c3c(sc2n1)CCC3,"activity change, negative = inhibition",[1],inactive: -12.5%
same,Potency,[6],inactive: > 20.6 µM
COCCn1c(=O)c(-c2ccc(Cl)cc2)nc2cnc(N(C)C)nc21,"activity change, negative = inhibition",[1],inactive: -3.17% [at 7.69 µM]
same,"activity, negative = inhibition",[2],inconclusive: 33.1% [activator]
same,Potency,[4],"inconclusive: 0.398 µM [activator, full curve, poor fit]"
same,Potency,[7],"inconclusive: 0.0794 µM [inhibitor, full curve]"
same,Potency,[3],"inconclusive: 3.16 µM [activator, single point]"
COc1cccc(/C(O)=C2/C(=O)C(=O)N(CCN(C)C)C2c2ccc(Br)cc2)c1 (stereo unspecified),"activity change, negative = inhibition",[1],inactive: -1.11%
same,Potency,[6],inactive: > 20.6 µM
OCCNc1ncnc2c1c(-c1ccccc1)c(-c1ccccc1)n2Cc1ccco1,"activity change, negative = inhibition",[1],inconclusive: -40.5% [inhibitor]
same,"activity, negative = inhibition",[2],inconclusive: -33.3% [inhibitor] [at 17.2 µM]
same,Potency,[3],"inconclusive: 1 µM [inhibitor, full curve, poor fit]"
COc1ccc(NC(=O)N2CC[C@@]3(CCCN(C(=O)c4cnccn4)C3)C2)cc1,"activity change, negative = inhibition",[1],inactive: -10.4% [at 7.69 µM]
same,"activity, negative = inhibition",[2],inactive: 6.32%
same,Potency,[5],"inconclusive: 3.16 µM [inhibitor, partial curve]"
COc1ccc(Oc2ncc3nc(-c4cccs4)c(=O)n(Cc4cccs4)c3n2)cc1,"activity change, negative = inhibition",[1],inconclusive: 41.8% [activator] [at 7.69 µM]
same,"activity, negative = inhibition",[2],inconclusive: 72.5% [activator]
same,Potency,[3],active: 3.16 µM
CCNc1ncc2nc(-c3ccc(OC)cc3)c(=O)n(Cc3cccc(OC)c3)c2n1,"activity change, negative = inhibition",[1],inconclusive: 29.9% [activator] [at 7.69 µM]
same,"activity, negative = inhibition",[2],inconclusive: 35.9% [activator]
same,Potency,[8],"inconclusive: 10 µM [activator, partial curve]"
same,Potency,[3],"inconclusive: 2.51 µM [fluorescent, side channel, single point]"
